Experimental findings from PMC9596381 (2022) are described below.

Targets include Unc5D (Rattus norvegicus (Rat), UniProt F1LW30); Unc5A (Mus musculus (Mouse), UniProt Q8K1S4); Unc5C (Mus musculus (Mouse), UniProt O08747); Unc5B (Mus musculus (Mouse), UniProt Q8K1S3).
Experiment in all cases: SPR, apparent 1:1 fit
Background: In SPR one partner is held on a chip, and binding of the other changes the refractive index at the surface.

Chain of Unc5A (Q8K1S4 38-298): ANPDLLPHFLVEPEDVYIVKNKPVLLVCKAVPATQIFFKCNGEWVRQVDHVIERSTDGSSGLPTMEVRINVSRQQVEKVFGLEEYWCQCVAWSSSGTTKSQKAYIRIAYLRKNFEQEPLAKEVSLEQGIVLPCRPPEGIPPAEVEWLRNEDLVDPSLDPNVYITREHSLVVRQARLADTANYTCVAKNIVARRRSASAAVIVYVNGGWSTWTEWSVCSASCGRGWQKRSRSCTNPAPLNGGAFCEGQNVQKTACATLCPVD
Chain of Unc5D (F1LW30 46-307): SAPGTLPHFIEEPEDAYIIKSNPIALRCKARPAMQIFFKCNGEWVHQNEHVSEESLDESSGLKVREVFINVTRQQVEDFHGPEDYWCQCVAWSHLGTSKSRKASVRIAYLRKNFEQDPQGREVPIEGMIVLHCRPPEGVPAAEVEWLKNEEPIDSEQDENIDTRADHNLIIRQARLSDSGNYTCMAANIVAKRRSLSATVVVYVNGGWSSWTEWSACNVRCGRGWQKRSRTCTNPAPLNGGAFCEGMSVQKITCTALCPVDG
Chain of Unc5C (O08747 56-316): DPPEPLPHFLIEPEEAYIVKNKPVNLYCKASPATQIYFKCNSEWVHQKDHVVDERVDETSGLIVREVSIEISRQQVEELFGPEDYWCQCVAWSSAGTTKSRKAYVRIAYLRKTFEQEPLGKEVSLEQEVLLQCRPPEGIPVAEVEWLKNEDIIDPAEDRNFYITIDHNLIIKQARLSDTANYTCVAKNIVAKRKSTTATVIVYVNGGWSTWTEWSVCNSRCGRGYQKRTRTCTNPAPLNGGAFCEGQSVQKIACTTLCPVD
Chain of Unc5B (Q8K1S3 42-302): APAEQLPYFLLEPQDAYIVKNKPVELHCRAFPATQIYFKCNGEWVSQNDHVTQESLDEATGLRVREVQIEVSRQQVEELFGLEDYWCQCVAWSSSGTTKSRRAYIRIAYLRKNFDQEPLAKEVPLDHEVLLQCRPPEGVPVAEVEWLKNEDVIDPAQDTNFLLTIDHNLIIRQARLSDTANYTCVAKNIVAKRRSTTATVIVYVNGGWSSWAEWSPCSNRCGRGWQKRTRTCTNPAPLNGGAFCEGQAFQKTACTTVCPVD

B1: GPC3 (protein)
chain: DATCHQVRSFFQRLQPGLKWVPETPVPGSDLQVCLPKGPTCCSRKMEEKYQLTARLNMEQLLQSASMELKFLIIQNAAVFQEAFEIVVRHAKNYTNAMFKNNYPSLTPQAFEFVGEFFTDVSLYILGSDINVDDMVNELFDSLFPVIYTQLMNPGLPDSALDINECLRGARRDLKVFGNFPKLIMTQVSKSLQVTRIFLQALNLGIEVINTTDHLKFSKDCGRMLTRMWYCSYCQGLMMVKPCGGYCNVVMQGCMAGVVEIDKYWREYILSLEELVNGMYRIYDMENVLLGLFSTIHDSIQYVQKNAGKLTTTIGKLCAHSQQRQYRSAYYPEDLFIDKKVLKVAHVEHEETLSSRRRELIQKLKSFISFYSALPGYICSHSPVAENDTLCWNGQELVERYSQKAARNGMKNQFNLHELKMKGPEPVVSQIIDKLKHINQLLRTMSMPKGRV
For the molecule B1, the Kd in the assay with Unc5D is 370 nM; in the assay with Unc5A, 890 nM; with Unc5C, 980 nM; with Unc5B, 370 nM.
